Measurements taken from PMC4336329 (PLoS ONE, 2015).
In all, about 310,000 compounds went through this assay and about 14,000 (4.5%) showed an effect of 50% or more. The effect is printed as a negative number. Some of the results follow.

What follows are compounds tested against human ether-à-go-go-related gene (hERG) potassium channel (human, UniProt Q12809) (assay: primary screen, population patch clamp on CHO cells stably expressing hERG).
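Note: peak tail current of the secondary pulse compared with the same well before compound.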

Sequence of human ether-à-go-go-related gene (hERG) potassium channel (Q12809 whole entry, looked up): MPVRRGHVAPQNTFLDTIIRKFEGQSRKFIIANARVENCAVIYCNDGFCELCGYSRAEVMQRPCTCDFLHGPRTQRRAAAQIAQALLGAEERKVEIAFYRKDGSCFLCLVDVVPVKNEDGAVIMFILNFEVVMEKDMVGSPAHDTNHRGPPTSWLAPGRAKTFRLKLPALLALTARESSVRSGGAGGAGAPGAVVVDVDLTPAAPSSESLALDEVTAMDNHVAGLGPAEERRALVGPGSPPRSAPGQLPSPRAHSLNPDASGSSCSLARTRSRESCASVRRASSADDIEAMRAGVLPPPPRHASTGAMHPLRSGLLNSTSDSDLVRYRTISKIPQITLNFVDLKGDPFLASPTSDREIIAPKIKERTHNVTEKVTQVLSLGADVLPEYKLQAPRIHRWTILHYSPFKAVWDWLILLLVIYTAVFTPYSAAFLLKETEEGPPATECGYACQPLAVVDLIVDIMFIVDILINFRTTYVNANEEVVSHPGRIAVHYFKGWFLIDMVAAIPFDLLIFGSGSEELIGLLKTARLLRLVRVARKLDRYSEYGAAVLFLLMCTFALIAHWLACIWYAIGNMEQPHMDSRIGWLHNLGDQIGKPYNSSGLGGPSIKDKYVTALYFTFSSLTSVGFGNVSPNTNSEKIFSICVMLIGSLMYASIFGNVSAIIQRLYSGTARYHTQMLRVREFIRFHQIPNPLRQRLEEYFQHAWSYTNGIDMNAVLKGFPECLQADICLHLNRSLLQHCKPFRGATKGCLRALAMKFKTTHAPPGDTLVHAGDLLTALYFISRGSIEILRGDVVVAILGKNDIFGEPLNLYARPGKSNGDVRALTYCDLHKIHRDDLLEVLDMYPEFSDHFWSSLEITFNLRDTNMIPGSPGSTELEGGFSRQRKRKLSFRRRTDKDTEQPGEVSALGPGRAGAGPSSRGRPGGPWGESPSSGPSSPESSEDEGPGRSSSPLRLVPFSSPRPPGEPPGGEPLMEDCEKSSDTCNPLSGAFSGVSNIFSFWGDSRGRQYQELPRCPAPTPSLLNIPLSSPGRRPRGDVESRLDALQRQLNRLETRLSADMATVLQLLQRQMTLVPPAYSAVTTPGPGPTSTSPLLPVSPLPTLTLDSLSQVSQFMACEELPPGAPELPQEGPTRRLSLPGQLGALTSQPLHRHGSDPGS

| SMILES | hERG current change (%, negative = inhibition) at 10uM [%] |
| --- | --- |
| O=C(c1cc2nc(-c3ccccc3)cc(C(F)(F)F)n2n1)N1CCOCC1 | -29.3 |
| O=C(Cc1ccccc1)NNC(=S)Nc1ccc(Cl)cc1 | 12 |
| C(=C\c1ccco1)/C=N/n1cnnc1 | 5.46 |
| Nc1ccc(C(=O)Nc2ccco2)cc1 | 8.93 |
| CCCn1c(=O)c2[nH]cnc2n(-c2ccc(Cl)cc2)c1=O | 6.53 |
| CCOC(=O)N1CCN(C(c2cccnc2)c2ccc3cccnc3c2O)CC1 (centres unmarked) | -0.699 |
| Cn1c(SCC#N)nnc1-c1ccc2c(c1)OCO2 | 16.9 |
| CCOC(=O)C1(CCc2ccccc2)CCN(C(=O)CCn2cncn2)CC1 | -63.2 |
| Oc1ccc(-c2onc(C(F)(F)F)c2-c2cscn2)c(O)c1 | 2.08 |
| Cc1c(C(=O)O)nn(-c2ccccc2)c(=O)c1C#N | 4.41 |
| CCOc1ccc(CCNC(=O)c2oc3c(c2C)-c2[nH]ncc2CC3)cc1OCC | 0.241 |
| C=CCn1c(O)c(C(C)=NCc2ccc3c(c2)OCO3)c(=O)[nH]c1=O | -8.17 |
| CCN1C(=O)C2(Nc3ccccc3-c3nc4ccccc4n32)c2cc(OC)ccc21 (centres unmarked) | -4.35 |
| Cc1nnc(SCC2=C(C(=O)O)N3C(=O)[C@@H](NC(=O)Cn4cnnn4)[C@H]3SC2)s1 | 2.9 |
| COc1ccc(CCNC(=O)c2cnn3c(C(F)F)cc(C)nc23)cc1OC | -4.22 |
| Nc1cc(S(=O)(=O)N2CCOCC2)ccc1Oc1ccc(F)cc1 | -3.51 |
| O=C(O)CCC(=O)Nc1cc(C(F)(F)F)cc(C(F)(F)F)c1 | 15.1 |
| CC(NC(=O)C(=O)c1cn(CC(=O)N2CCOCC2)c2ccccc12)c1ccccc1 (centres unmarked) | 4.56 |
| O=C(/C=C/c1cccc([N+](=O)[O-])c1)OC1CCCCC1=O (centres unmarked) | 7.17 |
| Cl.N[C@@H](Cc1c[nH]c2ccccc12)c1nnc(SCc2ccccc2)o1 | -3.63 |
| CCc1ccccc1NC(=O)COc1cccc2ccc(C)nc12 | -35.3 |
| FC(F)(F)c1cccc(-c2ccc(/C=N/Nc3nncc(-c4ccccc4)n3)o2)c1 | -12.8 |

| SMILES | hERG current change (%, negative = inhibition) at 10uM [%] |
| --- | --- |
| CCCc1nc(SCC(=O)N2CCC(C)CC2)c2c(=O)n(C)c(=O)n(C)c2n1 | -38.2 |
| Cc1cccc(OCC(=O)Nc2ccc(S(=O)(=O)Nc3onc(C)c3C)cc2)c1C | 13.3 |
| Nc1c2c(nc3sc4c(c13)CCCC4)CCCC2 | -70.4 |
| O=C(CCl)NN1C(=O)NC2(CCCCC2)C1=O | 9.35 |
| Cl.O=C(CN1CCN(c2ncccn2)CC1)Nc1ccccc1-n1cccc1 | -14.2 |
| O=C(CCC(=O)OCc1ccc(Br)cc1)Nc1ccccc1 | 8.45 |
| N/C(Cc1nc(-c2ccc(F)cc2)cs1)=N\O | 13.7 |
| O=S(=O)(NOCc1ccc(Cl)cc1)c1ccc(Cl)cc1 | 17.5 |
| Cc1c(NC(=O)c2ccc(Cl)nc2)cccc1-c1nc2cccnc2s1 | -48.1 |
| COCCNC(=O)c1c(NC(=O)c2nc(SC)ncc2Cl)sc2c1CCCC2 | 20.4 |
| CC1CCCN(C2(O)C(=O)Nc3ccc([N+](=O)[O-])cc32)C1 (centres unmarked) | 0.385 |
| O=C(COC(=O)C1COc2ccccc2O1)Nc1cccc(F)c1 (centres unmarked) | -17.9 |
| COc1ccc(NC(=O)c2cc(-c3cc(OC)c(OC)c(OC)c3)nc3ccccc23)c(OC)c1 | 20.2 |
| COc1ccccc1CNC(=O)C1CCC(CNS(=O)(=O)c2ccccc2)CC1 (centres unmarked) | 9.7 |
| CCCNC(=O)c1ccc(N2CCC3(CC2)CC(c2ccccc2)=NO3)c(NC(=O)c2cccc(C)c2)c1 | -18.6 |
| Cc1cccc(NC(=O)COC(=O)CSc2ccccc2)c1C | 1.87 |
| CCOC(=O)c1c(NC(=O)c2ccc(S(=O)(=O)N3CCOCC3)cc2)sc2c1CCN(C)C2 | -27.4 |
| CCOc1ccc(-n2cc(-c3ccccc3)c3c(N4CCOCC4)ncnc32)cc1 | 9.17 |
| CC(=O)Nc1ccc(C(=O)OCC(=O)NCc2ccc(Cl)cc2)cc1 | 38.3 |
| COc1ccc(C(=O)NCC(=O)OCC(=O)NC2CCCC2)cc1 | 16.1 |
| O=C(O)CCC(=O)Nc1ccc(N2CCCCC2)c(C(=O)O)c1 | 11.5 |
| COc1ccc(-c2cc(C(F)(F)F)nc(NCc3cccs3)n2)cc1 | -13.6 |
